Target: PP1α catalytic subunit (New England BioLabs) (UniProt P62139)
Test: SPR

Sequence of UniProt P62139 (P62139 whole entry): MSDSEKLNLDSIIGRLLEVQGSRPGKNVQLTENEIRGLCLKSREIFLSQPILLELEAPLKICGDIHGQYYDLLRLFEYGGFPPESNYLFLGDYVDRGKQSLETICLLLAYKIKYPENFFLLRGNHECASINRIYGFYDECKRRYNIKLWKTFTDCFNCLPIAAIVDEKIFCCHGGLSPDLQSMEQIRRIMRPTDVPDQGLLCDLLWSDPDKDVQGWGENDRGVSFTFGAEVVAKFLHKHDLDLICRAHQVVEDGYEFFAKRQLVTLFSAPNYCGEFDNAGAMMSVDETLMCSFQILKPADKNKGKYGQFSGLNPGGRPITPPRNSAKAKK

B1: AKAP79 […] (PP1 binding site deletion), S-tagged (domain or fragment)
chain: not shown
B1 gave a Kd of 103 nM and a kon of 288000 M⁻¹ s⁻¹.

From PMC3115558 (Biochemistry, 2011)
